Ten variants from the supplement of paper PMC12217912 can be followed below.

B1: TEV protease; numbered along this chain (parent)
chain: MGESLFKGPRDYNPISSSICHLTNESDGHTTSLYGIGFGPFIITNKHLFRRNNGTLVVQSLHGVFKVKDTTTLQQHLVDGRDMIIIRMPKDFPPFPQKLKFREPQREERICLVTTNFQTKSMSSMVSDTSCTFPSGDGIFWKHWIQTKDGQCGSPLVSTRDGFIVGIHSASNFTNTNNYFTSVPKNFMELLTNQEAQQWVSGWRLNADSVLWGGHKVFMVKPEEPFQPVKEATQL

The test covers variants of B1. Briefly: raw area under fraction-flipped curve 0-4 h after induction (AUC4h, not background-subtracted), DNA-recorder readout of cleavage of the substrate (dimensionless); higher = more cleavage of the substrate by the protease variant. As to conditions: temperature: 34 °C; time window: 0-4 h after rhamnose induction. Here is the method:
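In vivo DNA recorder in E. coli TOP10(DE3) ΔrhaA at 34 °C. Each TEVp single-site mutant (parent TEVp 0) is paired with a single-site variant of the 7-mer TEVs (canonical ENLYFQ|S). The substrate sits between flexible linkers in a Bxb1-sfGFP-TEVs-SsrA fusion, so cleavage stabilises Bxb1 and speeds flipping of a recombination array, read by NGS. The value is the raw area under the fraction-flipped curve over 0-4 h after rhamnose induction (AUC4h), with ≥20 reads per time point. It is not background-subtracted; inactive controls average about 0.047.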

The list shows a part of the results. Sequences were assembled here from the parent chain. Values near 0.05 are background.
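Note: Bxb1 expression induced with 0.2% (w/v) L-rhamnose at OD600 near 0.5, cultures sampled hourly, flipped fraction per protease–substrate barcode pair counted by paired-end Illumina sequencing.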

Consider R87N, for which the “area with substrate ENAYFQS” value came out at 0.0535.
For the variant R87T, the “area with substrate ENAYFQS” value is 0.0521, the “area with substrate ENDYFQS” value was determined as 0.0617, the “area with substrate ENFYFQS” value came out at 0.0568 and the “area with substrate ENGYFQS” value was 0.0732. Besides, the “area with substrate ENIYFQS” value is 0.0722, the “area with substrate ENNYFQS” value amounted to 0.0713, the “area with substrate ENRYFQS” value came to 0.0905 and the “area with substrate ENSYFQS” value is 0.0532.
E3W: the “area with substrate ENAYFQS” value came to 0.0611, the “area with substrate ENFYFQS” value turned out to be 0.0328, the “area with substrate ENGYFQS” value was found to be 0.0436 and the “area with substrate ENHYFQS” value was 0.0635. For the same variant, the “area with substrate ENKYFQS” value was 0.0658, the “area with substrate ENMYFQS” value was determined as 0.0807, the “area with substrate ENQYFQS” value was 0.0672 and the “area with substrate ENRYFQS” value was 0.0436. The “area with substrate ENSYFQS” value is 0.0701, the “area with substrate ENTYFQS” value was found to be 0.0919 and the “area with substrate ENVYFQS” value was determined as 0.0772.
Regarding H76F, the “area with substrate ENAYFQS” value worked out at 0.061, the “area with substrate ENEYFQS” value is 0.0637, the “area with substrate ENGYFQS” value came to 0.0527 and the “area with substrate ENHYFQS” value worked out at 0.0615. Further, the “area with substrate ENIYFQS” value was 0.104, the “area with substrate ENMYFQS” value was found to be 0.0603, the “area with substrate ENNYFQS” value was 0.0568 and the “area with substrate ENSYFQS” value is 0.0714. Besides, the “area with substrate ENTYFQS” value amounted to 0.0568, the “area with substrate ENVYFQS” value amounted to 0.0761 and the “area with substrate ENYYFQS” value turned out to be 0.0565.
With L99V, the “area with substrate ENAYFQS” value was found to be 0.083, the “area with substrate ENCYFQS” value stood at 0.0844, the “area with substrate ENDYFQS” value was determined as 0.0669 and the “area with substrate ENEYFQS” value worked out at 0.0599. Besides, the “area with substrate ENFYFQS” value was found to be 0.0732, the “area with substrate ENHYFQS” value amounted to 0.0679, the “area with substrate ENIYFQS” value came out at 0.105 and the “area with substrate ENKYFQS” value was 0.0772. The “area with substrate ENPYFQS” value turned out to be 0.0608, the “area with substrate ENQYFQS” value was 0.0643, the “area with substrate ENRYFQS” value amounted to 0.0652 and the “area with substrate ENSYFQS” value turned out to be 0.073. For the same variant, the “area with substrate ENVYFQS” value came out at 0.0692.
As for S154D, the “area with substrate ENAYFQS” value was 0.0503, the “area with substrate ENCYFQS” value was determined as 0.0564, the “area with substrate ENFYFQS” value came to 0.0494 and the “area with substrate ENGYFQS” value is 0.0523. For the same variant, the “area with substrate ENNYFQS” value turned out to be 0.05, the “area with substrate ENQYFQS” value was found to be 0.0587, the “area with substrate ENRYFQS” value came to 0.0541 and the “area with substrate ENSYFQS” value came to 0.0934. For the same variant, the “area with substrate ENYYFQS” value is 0.0478.
Turning to Q97W, the “area with substrate ENAYFQS” value amounted to 0.0537, the “area with substrate ENCYFQS” value amounted to 0.0635, the “area with substrate ENDYFQS” value was determined as 0.0849 and the “area with substrate ENEYFQS” value came to 0.0726. Further, the “area with substrate ENHYFQS” value came out at 0.0503, the “area with substrate ENNYFQS” value was 0.075, the “area with substrate ENQYFQS” value was 0.0578 and the “area with substrate ENSYFQS” value came to 0.0523. Also, the “area with substrate ENTYFQS” value was 0.0629.
Consider F38V, for which the “area with substrate ENAYFQS” value came out at 0.0578, the “area with substrate ENEYFQS” value came out at 0.058, the “area with substrate ENGYFQS” value is 0.0768 and the “area with substrate ENMYFQS” value turned out to be 0.0399. The “area with substrate ENPYFQS” value was found to be 0.0566, the “area with substrate ENQYFQS” value turned out to be 0.0608, the “area with substrate ENRYFQS” value amounted to 0.0298 and the “area with substrate ENSYFQS” value was found to be 0.0798. For the same variant, the “area with substrate ENTYFQS” value came out at 0.0716.
For the variant P93C, the “area with substrate ENAYFQS” value turned out to be 0.0456, the “area with substrate ENEYFQS” value was found to be 0.0455, the “area with substrate ENFYFQS” value came out at 0.0499 and the “area with substrate ENMYFQS” value was 0.0861. Also, the “area with substrate ENQYFQS” value came out at 0.0695, the “area with substrate ENSYFQS” value is 0.0676 and the “area with substrate ENVYFQS” value came out at 0.0691.
In the case of P93L, the “area with substrate ENAYFQS” value is 0.0793, the “area with substrate ENDYFQS” value is 0.0527, the “area with substrate ENEYFQS” value worked out at 0.0677 and the “area with substrate ENFYFQS” value turned out to be 0.0471. Moreover, the “area with substrate ENGYFQS” value worked out at 0.0596, the “area with substrate ENKYFQS” value came to 0.0614, the “area with substrate ENMYFQS” value was found to be 0.0582 and the “area with substrate ENSYFQS” value came to 0.0501. For the same variant, the “area with substrate ENVYFQS” value is 0.0591.
